# Source: the supplement of paper PMC3334620
# The full ranking holds about 33,000 sequences; the median of “E-score (-0.5 to 0.5)” is about -0.021, and the highest 2% start at about 0.32. This is one part of the list.
# Target: T1, Zap1 (UniProt P47043)
# T1 sequence: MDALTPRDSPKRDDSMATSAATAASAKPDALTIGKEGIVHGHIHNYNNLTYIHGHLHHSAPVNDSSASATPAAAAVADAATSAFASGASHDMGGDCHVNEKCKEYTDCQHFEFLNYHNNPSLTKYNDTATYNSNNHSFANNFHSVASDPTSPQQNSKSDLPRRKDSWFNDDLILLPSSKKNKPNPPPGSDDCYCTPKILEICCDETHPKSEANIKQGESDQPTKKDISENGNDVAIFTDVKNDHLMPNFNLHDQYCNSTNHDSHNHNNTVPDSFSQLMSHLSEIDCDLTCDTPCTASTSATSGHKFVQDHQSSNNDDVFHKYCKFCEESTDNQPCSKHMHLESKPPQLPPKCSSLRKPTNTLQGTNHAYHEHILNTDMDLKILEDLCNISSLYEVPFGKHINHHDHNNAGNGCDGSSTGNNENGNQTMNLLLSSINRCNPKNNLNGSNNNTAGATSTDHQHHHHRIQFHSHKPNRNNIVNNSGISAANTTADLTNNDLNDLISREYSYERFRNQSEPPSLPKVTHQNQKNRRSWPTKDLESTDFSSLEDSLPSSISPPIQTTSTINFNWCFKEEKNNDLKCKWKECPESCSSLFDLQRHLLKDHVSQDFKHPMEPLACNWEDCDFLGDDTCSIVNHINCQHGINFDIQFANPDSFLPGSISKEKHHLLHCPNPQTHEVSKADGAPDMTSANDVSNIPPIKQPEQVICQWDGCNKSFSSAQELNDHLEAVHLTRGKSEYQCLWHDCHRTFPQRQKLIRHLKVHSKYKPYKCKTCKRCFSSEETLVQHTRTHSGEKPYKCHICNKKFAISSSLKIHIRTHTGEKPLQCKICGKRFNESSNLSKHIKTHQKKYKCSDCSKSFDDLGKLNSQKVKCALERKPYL
# Assay: PBM E-score (8-mer binding enrichment) (E-score (-0.5 to 0.5)); higher = stronger / more preferred TF binding; most listed sequences are background and not binding sites
# Details: protein concentration: 200 nM; construct: GST-full length
# Summary of the method: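 Using PURExpress in vitro transcription/translation, GST-tagged yeast transcription factors were made in full-length or DNA-binding-domain form. These were applied at about 100-200 nM to double-stranded universal all-10-mer Agilent arrays, and bound protein was detected with fluorescent anti-GST. Scans were normalised with masliner before the Universal PBM Analysis Suite assigned E-scores to ungapped eight-base words pooled with their reverse complements.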
row,Sequence,PBM E-score
1,CCACGACC,0.314
2,GCTACATA,-0.224
3,AGCTACTC,-0.066
4,AGCTCGGC,-0.189
5,CACATTAC,-0.0748
6,AAAATGGG,0.0893
7,AGCCACTA,-0.0262
8,CGGTCATC,0.131
9,GAGAAGGA,-0.232
10,CACTATAG,0.0502
11,CTCTTCTA,-0.0672
12,ACGTGCGG,-0.0512
13,ATATCCTA,-0.0164
14,CCCCACGG,0.178
15,GGATTTAC,-0.0955
16,GAAGGTAA,0.319
17,CTCAGATC,-0.00776
18,GAATCTCA,-0.167
19,ACGCCGTC,-0.299
20,ACTAATGC,-0.0246
21,AAGAACTG,-0.106
22,AGCCTGAT,-0.177
23,GGCGTCGA,0.0444

row,Sequence,PBM E-score
1,ATCGTCCA,-0.261
2,ATACGCAC,-0.0166
3,TGTGGGAA,-0.0742
4,CCGACCTC,-0.0902
5,AATCATTG,0.0609
6,CTCAGACA,-0.0287
7,AAGCTCCC,-0.172
8,GGTGATCA,0.213
9,CAGGCTCA,-0.29
10,TACTGAAA,0.173
11,ACGGAGTA,0.119
12,AGACATTG,-0.172
13,AGCGCCGG,-0.122
14,AACCAGTT,0.291
15,GGCTAAGA,-0.0566
16,CGTACACC,-0.00147
17,GCCCCGAC,0.0325
18,AAAGGGCT,0.00434
19,ACGCGCGT,0.146
20,AGCCTCGG,-0.112
21,TATTATAA,0.258
22,ACGTACAC,-0.0137
23,AGATGTCA,-0.11

row,Sequence,PBM E-score
1,CCAAAACG,0.163
2,TACACCAA,0.297
3,AAGAGCCC,-0.209
4,CCACAGGA,-0.0546
5,TCGCAGAA,-0.0445
6,AGGCCACT,-0.13
7,AATAGTCT,0.00568
8,GCAGTTGA,0.0156
9,CCCCAGCA,0.133
10,AACTGCCC,-0.167
11,TACCAAGA,0.218
12,ATGTCGGC,-0.135
13,ACAGTTTC,0.0648
14,CTGGCGTC,-0.109
15,CACCCGAC,0.137
16,ATTCCCTA,0.0426
17,CCTTTTCA,0.17
18,AAGCGCCA,-0.308
19,AGTCCAAA,-0.0618
20,ACTTCAAT,0.101
21,ATTGTTGC,0.1
